Assay results as given in patent EP4676544A1 (dated 2026).

Target: T1, human L1CAM (Neural cell adhesion molecule L1) (human, UniProt P32004 20-1257)
T1 construct: whole, on cells; also called L1CAM proteins on the cancer cell surface
Assay: flow cytometry on 22 cancer cell lines carrying L1CAM, fluorescent secondary antibody, compared with a control antibody

T1 sequence (P32004 20-1257): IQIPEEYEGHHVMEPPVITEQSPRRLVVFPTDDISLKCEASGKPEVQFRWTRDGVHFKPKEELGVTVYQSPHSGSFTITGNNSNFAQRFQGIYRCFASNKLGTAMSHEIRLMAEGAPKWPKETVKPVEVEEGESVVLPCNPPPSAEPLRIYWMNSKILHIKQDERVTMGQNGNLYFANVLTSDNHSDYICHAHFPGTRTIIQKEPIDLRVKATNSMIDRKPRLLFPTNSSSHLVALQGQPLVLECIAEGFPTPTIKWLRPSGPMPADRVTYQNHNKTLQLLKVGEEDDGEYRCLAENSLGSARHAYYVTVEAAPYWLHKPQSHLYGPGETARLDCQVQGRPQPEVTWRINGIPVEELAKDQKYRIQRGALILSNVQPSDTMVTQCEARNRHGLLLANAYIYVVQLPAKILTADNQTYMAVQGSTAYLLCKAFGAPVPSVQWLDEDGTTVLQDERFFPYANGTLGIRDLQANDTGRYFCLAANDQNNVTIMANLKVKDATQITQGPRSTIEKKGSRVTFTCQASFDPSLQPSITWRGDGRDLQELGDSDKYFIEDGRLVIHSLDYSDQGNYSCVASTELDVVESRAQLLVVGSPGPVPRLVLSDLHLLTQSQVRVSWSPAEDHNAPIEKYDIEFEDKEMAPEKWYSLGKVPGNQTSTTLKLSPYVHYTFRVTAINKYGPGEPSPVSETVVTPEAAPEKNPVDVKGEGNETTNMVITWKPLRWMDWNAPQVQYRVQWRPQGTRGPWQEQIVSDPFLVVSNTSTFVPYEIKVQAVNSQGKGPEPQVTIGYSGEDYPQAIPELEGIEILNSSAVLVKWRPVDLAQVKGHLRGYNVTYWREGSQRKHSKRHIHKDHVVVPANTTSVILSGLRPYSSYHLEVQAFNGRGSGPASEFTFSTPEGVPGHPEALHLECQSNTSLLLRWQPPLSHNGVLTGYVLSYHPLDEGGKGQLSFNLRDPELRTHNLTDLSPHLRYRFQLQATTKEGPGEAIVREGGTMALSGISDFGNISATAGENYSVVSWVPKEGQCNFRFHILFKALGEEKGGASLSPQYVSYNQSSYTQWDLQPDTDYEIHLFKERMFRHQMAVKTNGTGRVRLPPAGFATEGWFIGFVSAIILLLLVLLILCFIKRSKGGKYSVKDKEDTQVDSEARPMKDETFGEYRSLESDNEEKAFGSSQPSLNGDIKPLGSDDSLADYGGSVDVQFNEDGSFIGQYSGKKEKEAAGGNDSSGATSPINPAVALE

B1: AFF4-CaaX (antibody, human IgG1, kappa)
heavy: QVQLQESGPGLVKPSQTLSLTCTVTGYSITSDYTWNWIRQFPGKGLEWMGYISYSGSYSYNPSLKSRVTISRDTSKNQFSLKLSSVTAADTAVYYCARSFSYSYGFAYWGQGTLVTVSSASTKGPSVFPLAPSSKSTSGGTAALGCLVKDYFPEPVTVSWNSGALTSGVHTFPAVLQSSGLYSLSSVVTVPSSSLGTQTYICNVNHKPSNTKVDKRV[… human IgG1 Fc with changes …]
light: DIQMTQSPSSLSASVGDRVTITCKASQDVSSAVAWYQQKPGKAPKLLIYSASYRYTGVPSRFSGSGSGTDFTFTISSLQPEDFATYYCQQHYSTPWTFGGGTKVEIKRTVAAPSVFIFPPSDEQLKSGTASVVCLLNNFYPREAKVQWKVDNALQSGNSQESVTEQDSKDSTYSLSSTLTLSKADYEKHKVYACEVTHQGLSSPVTKSFNRGECGGGGGGGCVIM
notes: also called AFF4-CaaX antibody; anti-L1CAM antibody
- binding result: binds
